Among all 410,000 compounds or so, about 5,000 (1.2%) were called active. This list was built around the results that the source calls inconclusive (neither active nor inactive); the mix of calls is not that of the screen. Calls come from the whole dose curve; as a rule, active = well fitted inhibition curve with a large enough effect; inconclusive = small, poorly fitted or top-dose-only effect; inactive = no such curve, though single readings can be large or run the other way. Potencies beside an inconclusive call are fits to weak or partial responses and may not hold up.
Experiment: qHTS for Inhibitors of TGF-b; note: nearly all actives have a fitted effect of over 65% in size
Conditions: HepG2 CAGA-GFP TGF-b/SMAD3 reporter, GFP fluorescence, 18 h, TGF-beta stimulated, 500 pg/mL final; series mostly up to 46.1 µM
Method in brief: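 Using HEPG2 CAGA-GFP reporter cells at 1000 cells/well, we pinned test compounds, stimulated with recombinant TGF-beta (500 pg/mL final) and measured total well GFP after 18 h.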
Potency is the fitted concentration of half-maximal effect; tags give direction and shape of the fitted curve.

Row | SMILES | Potency
1 | C/C(=C\c1ccccc1)C(=O)N1CCN(c2cccc(C(F)(F)F)c2)CC1 | inconclusive: 35.5 µM [inhibitor, partial curve, poor fit]
2 | Cc1c(C)n(C)c2ccc(C(=O)NCCCN3CCCC3)cc12 | inactive
3 | O=C(NC1Cc2ccccc2C1)c1cc(COc2ccc(F)cc2Cl)on1 | inconclusive: 10 µM [inhibitor, partial curve, poor fit]
4 | CC(C)(C)OC(=O)[C@H](Cc1ccccc1)NC(=O)c1[nH]cnc1C(=O)Nc1ccc(Cl)cc1 | inconclusive: 20 µM [inhibitor, partial curve, poor fit]
5 | CCc1ccc(NCc2cc3cc4c(cc3n(CC(=O)Nc3ccc(OC)cc3)c2=O)OCO4)cc1 | inactive
6 | Cc1ccn(CCC(=O)Nc2ccc(-c3ccno3)cc2)n1 | inactive
7 | CCn1c(C(O)c2cccc(OC)c2OC)nc2ccccc21 (stereo not drawn) | inconclusive: 35.5 µM [inhibitor, partial curve, poor fit]
8 | COc1cccc(CNC(=O)Cn2c(=O)cc(C)c3c(C)nn(C)c32)c1OC | inconclusive: 35.5 µM [inhibitor, single point]
9 | O=C(O)c1ccccc1C(=O)N1CC=C(c2ccccc2)CC1 | inactive
10 | Clc1ccccc1CSc1ncccn1 | inactive
11 | Cc1cccc(N(C)C(=O)C2CCC(CNS(=O)(=O)c3cccc4nsnc34)CC2)c1 (stereo not drawn) | inconclusive: 22.4 µM [inhibitor, partial curve, poor fit]
12 | Cc1ccc(C)c(NC(=O)CCN2CCCCC2)c1 | inactive
13 | O=C(CSc1nnnn1-c1ccc(F)cc1)c1ccc(O)c(O)c1 | inactive
14 | COc1ccc(-c2csc(N(CCCN(C)C)C(=O)c3cc(OC)c(OC)c(OC)c3)n2)cc1 | inconclusive: 35.5 µM [inhibitor, single point]
15 | CCN(CC(=O)Nc1ccc(N2CCOCC2)cc1)C(=O)c1ccc(C#N)cc1 | inactive
16 | COC(=O)CCc1c(C)c(C(=O)c2ccc(F)cc2)c2ccccn12 | inconclusive: 35.5 µM [inhibitor, single point]
17 | O=C1c2ccccc2CCC12OC2c1ccc([N+](=O)[O-])cc1 (stereo not drawn) | inactive
18 | Cn1c(=O)c2c(ncn2CC(=O)Nc2cc(S(=O)(=O)N3CCCCC3)ccc2Cl)n(C)c1=O | inconclusive: 5.62 µM [inhibitor, full curve]
19 | CC(=O)Nc1ncc(N=Nc2cccc(C(F)(F)F)c2)s1 | inactive
20 | S=C(N/N=C/c1ccccc1)N1CCOCC1 | inconclusive: 11.2 µM [inhibitor, partial curve, poor fit]
21 | CCCNS(=O)(=O)c1ccc(NC(=O)c2ccccn2)cc1 | inconclusive: 6.31 µM [inhibitor, single point]
22 | O=C(O)CCNc1nc(-c2ccccc2)nc2ccccc12 | inconclusive: 31.6 µM [inhibitor, single point]
23 | CC(=O)c1cccc(-c2cnc3c(NC=O)cc(-c4ccc(N(C)C)cc4)cn23)c1 | active: 4.47 µM
24 | Cc1ccc(-c2cc(C(=O)N3N=C(C(F)F)CC3(O)C(F)F)c3ccccc3n2)cc1C (stereo not drawn) | inconclusive: 17.8 µM [inhibitor, single point]

Row | SMILES | Potency
25 | O=C(c1ccc(Cl)cc1)C1CCCN(Cc2cnn(-c3ccccc3)c2)C1 (stereo not drawn) | inconclusive: 0.708 µM [inhibitor, full curve, poor fit]
26 | Cc1ccc(OCCn2c(CNc3ccccc3C)nc3ccccc32)cc1 | inconclusive: 35.5 µM [inhibitor, single point]
27 | CC1Sc2ccc(S(=O)(=O)CCC(=O)NC(C)c3ccccc3)cc2NC1=O (stereo not drawn) | inactive
28 | Cc1cccnc1NC(=O)CSc1ccc2c(c1)OCCO2 | inactive
29 | N#C/C(=C/c1ccc(O)cc1)c1nc(-c2ccc(-c3ccccc3)cc2)cs1 | inactive
30 | COc1ccc(Cl)cc1NC(=O)NCc1ccc2c(c1)OCO2 | inactive
31 | Cc1ccccc1OCCC(=O)Nc1ccc(N2CCOCC2)cc1N1CCOCC1 | inconclusive: 6.31 µM [inhibitor, single point]
32 | CC(=O)c1ccc(NC(=S)NC(NC(=O)c2ccco2)C(Cl)(Cl)Cl)cc1 (stereo not drawn) | inconclusive: 4.47 µM [inhibitor, partial curve, poor fit]
33 | OCCN=C1CCCc2c1[nH]c1ccc(Cl)cc21 | inactive
34 | c1ccc2nc3c(cc2c1)CCCCC3 | inactive
35 | COc1cccc(NC(=O)C2C(c3ccccc3)C2(Cl)Cl)c1 (stereo not drawn) | inconclusive: 20 µM [inhibitor, single point]
36 | Cc1cccc(NC(=O)CSc2nnc(C)c(=O)n2N)c1 | inactive
37 | Cc1cc(NC(=O)CSCC(=O)Nc2cc(Cl)ccc2N2CCN(C)CC2)no1 | inactive
38 | O=C(Nc1ccc(F)cc1)c1nc(SCc2ccccc2F)ncc1Cl | inconclusive: 2.51 µM [inhibitor, partial curve, poor fit]
39 | C(=C\c1ccnc2ccccc12)/c1ccc2ccccc2n1 | inconclusive: 28.2 µM [inhibitor, single point]
40 | c1ccc(COc2ccccc2CNC23CC4CC(CC(C4)C2)C3)cc1 | inconclusive: 17.8 µM [inhibitor, single point]
41 | COc1ccc(-c2sc3ccc(N4CCOCC4)cc3c2C#CC2(O)CCCCC2)cc1 | inconclusive: 15.8 µM [inhibitor, single point]
42 | CCCSC1=NC2(CCN(C(=O)NC3CCCCC3)CC2)N=C1c1ccc(OC)cc1 | inconclusive: 17.8 µM [inhibitor, single point]
43 | CSc1ccc(Cc2ccc(Cl)cc2Cl)nn1 | inconclusive: 22.4 µM [inhibitor, single point]
44 | CCCN(CCC)Cc1c(C(=O)N/N=C/C(C)=C\c2ccco2)nnn1-c1nonc1N | active: 7.94 µM
45 | CC(=O)Nc1cccc2c1Cc1ccccc1-2 | inactive
46 | O=C(c1ccccc1)c1nn(-c2ccccc2)c(=O)cc1C(F)(F)F | inactive
47 | CCC(=O)NC(c1ccc(C)cc1)c1cc(Cl)c2cccnc2c1O (stereo not drawn) | inconclusive: 4.47 µM [inhibitor, full curve, poor fit]
48 | CCCCN1C(C(=O)c2ccccc2)=C(OC(=O)CC)c2ccccc2S1(=O)=O | inconclusive: 22.4 µM [inhibitor, single point]

Reference: PubChem BioAssay AID588855 (National Center for Advancing Translational Sciences (NCATS), 2011)
